Experimental data: patent US5391540A, “Substituted pyridine compounds” (Rohm and Haas Company, priority 1993, dated 1995)
At least one read-out could not be matched to a standard name with certainty. Some compounds share one range, which may span the group rather than tell each member.

Columns and labels:
Assay in all cases: Post-emergence herbicidal activity (Table C)
Assay type in all cases: in vivo
Barnyardgrass = settings: Bygr, 11.2 kg/ha, 10-14 days
Common Lambsquarters = settings: Colq, 11.2 kg/ha, 10-14 days
Velvetleaf = settings: Vele, 11.2 kg/ha, 10-14 days
Pennsylvania Smartweed = settings: Pesw, 11.2 kg/ha, 10-14 days
Rhizome Johnsongrass = settings: Rhjg, 11.2 kg/ha, 10-14 days
Morningglory = settings: Mogl, 11.2 kg/ha, 10-14 days
Quackgrass = settings: Rhqg, 11.2 kg/ha, 10-14 days
Canada thistle = settings: Cath, 11.2 kg/ha, 10-14 days
Cocklebur = settings: Cobu, 11.2 kg/ha, 10-14 days
Downy Brome = settings: Dobr, 11.2 kg/ha, 10-14 days
Yellow Nutsedge = settings: Yens, 11.2 kg/ha, 10-14 days

Structure (SMILES)	post-emergent herbicidal activity index (Barnyardgrass)	post-emergent herbicidal activity index (Common Lambsquarters)	post-emergent herbicidal activity index (Velvetleaf)	post-emergent herbicidal activity index (Pennsylvania Smartweed)	post-emergent herbicidal activity index (Rhizome Johnsongrass)	post-emergent herbicidal activity index (Morningglory)	post-emergent herbicidal activity index (Quackgrass)	post-emergent herbicidal activity index (Canada thistle)	post-emergent herbicidal activity index (Cocklebur)	post-emergent herbicidal activity index (Downy Brome)	post-emergent herbicidal activity index (Yellow Nutsedge)
CNC(=O)c1c(C(F)(F)F)nc(OC)c(C(=O)OC)c1CC(C)C [Compound 37, 3-pyridinecarboxylic acid, 2-methoxy-5-[(methylamino)carbonyl]-4-(2-methylpropyl)-6-(trifluoromethyl)-, methyl ester]	0 (0-24% inhibition)	0 (0-24% inhibition)	0 (0-24% inhibition)	0 (0-24% inhibition)	0 (0-24% inhibition)	0 (0-24% inhibition)	0 (0-24% inhibition)	0 (0-24% inhibition)	0 (0-24% inhibition)	0 (0-24% inhibition)	0 (0-24% inhibition)
COC(=O)c1c(OC)nc(C(F)(F)F)c(C(=O)n2ccc(C)n2)c1CC(C)C [Compound 51, 3-pyridinecarboxylic acid, 2-methoxy-4-(2-methylpropyl)-5-[(3-methy1-1H-pyrazo1-1-yl)carbonyl]-6-(trifluoromethyl)-, methyl ester]	1 (25-49% inhibition)	0 (0-24% inhibition)	0 (0-24% inhibition)	0 (0-24% inhibition)	0 (0-24% inhibition)	1 (25-49% inhibition)	0 (0-24% inhibition)	0 (0-24% inhibition)	1 (25-49% inhibition)	0 (0-24% inhibition)	0 (0-24% inhibition)
COC(=O)c1c(OC)nc(C(F)(F)F)c(C(=O)OC)c1C1CCC1 [Compound 48, 3,5-pyridinedicarboxylic acid, 4-cyclobuty1-2-methoxy-6-(trifluoromethyl)-, dimethyl ester]	0 (0-24% inhibition)	0 (0-24% inhibition)	0 (0-24% inhibition)	0 (0-24% inhibition)	0 (0-24% inhibition)	0 (0-24% inhibition)	0 (0-24% inhibition)	0 (0-24% inhibition)	0 (0-24% inhibition)	0 (0-24% inhibition)	0 (0-24% inhibition)
COC(=O)c1c(OC)nc(C(F)(F)F)c(C(=O)OC)c1C(C)C [Compound 63, 3,5-pyridinedicarboxylic acid, 2-methoxy-4-(1-methylethyl)-6-(trifluoromethyl)-, dimethyl ester]	0 (0-24% inhibition)	0 (0-24% inhibition)	0 (0-24% inhibition)	0 (0-24% inhibition)	0 (0-24% inhibition)	0 (0-24% inhibition)	0 (0-24% inhibition)	0 (0-24% inhibition)	0 (0-24% inhibition)	0 (0-24% inhibition)	0 (0-24% inhibition)
CCOC(=O)c1c(OCC)nc(C(F)(F)F)c(C(=O)OC)c1CC(C)C [Compound 3, 3,5-pyridinedicarboxylic acid, 2-ethoxy-4-(2-methylpropyl)-6-(trifluoromethyl)-, 3-ethyl 5-methyl ester, hydrate (1:0.4)]	0 (0-24% inhibition)	2 (50-74% inhibition)	0 (0-24% inhibition)	0 (0-24% inhibition)	0 (0-24% inhibition)	0 (0-24% inhibition)	0 (0-24% inhibition)	0 (0-24% inhibition)	0 (0-24% inhibition)	0 (0-24% inhibition)	0 (0-24% inhibition)
COC(=O)c1c(OC)nc(C(F)(F)F)c(C2=NCCS2)c1CC(C)C [Compound 50, 3-pyridinecarboxylic acid, 5-(4,5-dihydro-2-thiazolyl)-2-methoxy-4-(2-methylpropyl)-6-(trifluoromethyl)-, methyl ester]	2 (50-74% inhibition)	1 (25-49% inhibition)	0 (0-24% inhibition)	1 (25-49% inhibition)	0 (0-24% inhibition)	0 (0-24% inhibition)	0 (0-24% inhibition)	0 (0-24% inhibition)	1 (25-49% inhibition)	0 (0-24% inhibition)	0 (0-24% inhibition)
COC=Nc1c(OC)nc(C(F)(F)F)c(C(=O)OC)c1CC(C)C [Compound 56, 3-pyridinecarboxylic acid, 6-methoxy-5-[(methoxymethylene)amino]-4-(2-methylpropyl)-2-(trifluoromethyl)-, methyl ester]	0 (0-24% inhibition)	0 (0-24% inhibition)	0 (0-24% inhibition)	0 (0-24% inhibition)	0 (0-24% inhibition)	0 (0-24% inhibition)	0 (0-24% inhibition)	0 (0-24% inhibition)	0 (0-24% inhibition)	0 (0-24% inhibition)	0 (0-24% inhibition)
COC(=O)c1c(OC)nc(C(F)(F)F)c(C(=O)NCCO)c1CC(C)C [Compound 38, 3-pyridinecarboxylic acid, 5-[[(2-hydroxyethyl)amino]carbonyl]-2-methoxy-4-(2-methylpropyl)-6-(trifluoromethyl)-, methyl ester]	0 (0-24% inhibition)	0 (0-24% inhibition)	0 (0-24% inhibition)	0 (0-24% inhibition)	0 (0-24% inhibition)	0 (0-24% inhibition)	0 (0-24% inhibition)	0 (0-24% inhibition)	0 (0-24% inhibition)	0 (0-24% inhibition)	0 (0-24% inhibition)
COCc1c(C(=O)OC)c(OC)nc(C(F)(F)F)c1C(=O)OC [Compound 88, 3,5-pyridinedicarboxylic acid, 2-methoxy-4-(methoxymethyl)-6-(trifluoromethyl)-, dimethyl ester]	0 (0-24% inhibition)	0 (0-24% inhibition)	0 (0-24% inhibition)	0 (0-24% inhibition)	0 (0-24% inhibition)	0 (0-24% inhibition)	0 (0-24% inhibition)	0 (0-24% inhibition)	0 (0-24% inhibition)	0 (0-24% inhibition)	0 (0-24% inhibition)
COC(=O)c1c(O)nc(C(F)(F)F)c(C(=O)OC)c1CC(C)C [Compound 1, 3,5-pyridinedicarboxylic acid, 2-hydroxy-4-(2-methylpropyl)-6-(trifluoromethyl)-, dimethyl ester]	0 (0-24% inhibition)	0 (0-24% inhibition)	0 (0-24% inhibition)	0 (0-24% inhibition)	0 (0-24% inhibition)	0 (0-24% inhibition)	0 (0-24% inhibition)	0 (0-24% inhibition)	0 (0-24% inhibition)	0 (0-24% inhibition)	0 (0-24% inhibition)
